96 compounds from PubChem BioAssay AID485344 (National Center for Advancing Translational Sciences (NCATS), 2010) can be followed below.

The whole screen tested about 340,000 compounds, of which about 6,900 (2%) were called active. Cut-off read from the data, not from the text of the source: active = inhibition above about 30%; inactive = below that, where a call was filed. Only a part is listed here, and it is no random draw. Entries without a call were filed so in the source.

This assay has as its target D(2) dopamine receptor (Homo sapiens) (UniProt P14416). The assay is described as follows: HTS Assay for Allosteric Antagonists of the Human D2 Dopamine Receptor: Primary Screen for Antagonists. Note: 0% is about no effect. As to conditions: HEK293 TREx D2 cells, calcium flux, dopamine EC80; at 10 µM; stronger effect = higher value. In outline: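 HEK293 T-REx D2 cells, tet-induced, calcium dye no-wash. Cpd pintool add, 180 s kinetic, then EC80 DA, 180 s kinetic. Ca flux read.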
UniProt P14416, sequence (P14416 whole entry, looked up): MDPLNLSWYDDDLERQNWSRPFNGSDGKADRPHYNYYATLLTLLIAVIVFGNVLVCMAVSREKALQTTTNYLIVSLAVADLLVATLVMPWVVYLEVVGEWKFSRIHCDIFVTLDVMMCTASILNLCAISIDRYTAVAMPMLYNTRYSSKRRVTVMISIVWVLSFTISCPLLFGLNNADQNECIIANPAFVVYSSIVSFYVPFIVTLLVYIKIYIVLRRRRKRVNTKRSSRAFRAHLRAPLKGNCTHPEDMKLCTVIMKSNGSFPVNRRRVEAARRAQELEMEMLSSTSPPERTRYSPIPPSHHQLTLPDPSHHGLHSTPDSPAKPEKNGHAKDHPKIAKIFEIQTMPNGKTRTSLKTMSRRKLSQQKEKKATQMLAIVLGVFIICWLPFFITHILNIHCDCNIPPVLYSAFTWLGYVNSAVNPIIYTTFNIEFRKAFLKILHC
Background: A change in cytosolic calcium serves as a functional read-out for many receptors and channels.
`CCCc1nn2c(=O)cc(COC(=O)c3ccco3)nc2s1`: the inhibition is 7.02%.

For the compound `O=C(CSc1ncc2c(n1)-c1ccc(Cl)cc1N(Cc1ccccc1)S2(=O)=O)Nc1ccccc1C(F)(F)F`, the inhibition was found to be 3.18%.

As for `CCOC(=O)Cn1c(=O)n(CC2CCCO2)c2nc(-c3ccc(CC)cc3)nc(C(N)=O)c21` (stereo unspecified), the inhibition is -16.5%.

For `c1ccc(-c2cnc(SCCN3CCOCC3)n2CC2CCCO2)cc1` (stereo unspecified), the inhibition is active: 33.8%.

Regarding `CC(=O)Nc1c(C)nn(-c2ccccc2)c1N1CCC(C(=O)Nc2cccc(C(F)(F)F)c2)CC1`, the inhibition was -5.21%.

In the case of `CCC(=O)Nc1cc2nn(-c3ccc(C)cc3)nc2cc1C`, the inhibition was 9.14%.

For the compound `O=C(CCCN1CCC(O)(c2ccc(Br)cc2)CC1)c1ccc(F)cc1`, the inhibition is active: 78.5%.

In the case of `Cc1ccc(NS(=O)(=O)c2c(C)nc3sc(C)cn3c2=O)c(C)c1`, the inhibition is -13.3%.

Consider `Cc1ccc(S(=O)(=O)c2nnn3c2nc(N2CCC(C(N)=O)CC2)c2cc(Cl)ccc23)cc1C`, for which the inhibition was -2.76%.

In the case of `Cc1nc2c(c(C)nn2C(C)(C)C)c(C)c1CCC(=O)Nc1ccc(Br)cc1Br`, the inhibition is -1.27%.

As to `CCOC(=O)CN1C(=O)C(=O)c2cc(C)ccc21`, the inhibition is active: 37%.

As for `CCCN(CCC)C(=O)C1CCCN(c2ncnc3c2nc2n3CCCCC2)C1` (stereo unspecified), the inhibition was -1.14%.

In the case of `Cc1ccccc1CNC(=O)c1ccc(CN2CC(=O)N3CCCCC3C2=O)cc1` (stereo unspecified), the inhibition was 17.3%.

Take `COc1cccc(CNC(=O)CCC(=O)N2CC(C)Sc3ccccc32)c1` (stereo unspecified): the inhibition came to 9.45%.

With `Cc1ccccc1CN1C(=O)c2ccccc2S(=O)c2ccc(C(=O)NCc3ccc4c(c3)OCO4)cc21` (stereo unspecified), the inhibition was -5.52%.

Turning to `COc1ccc(CNC(=O)C(=O)Nc2cc(Cl)ccc2OC)cc1`, the inhibition came out at 9.69%.

As for `CC(=O)Nc1cc(C(=O)Nc2ccc3c(c2)N(C)C(=O)c2ccccc2S3)ccc1C`, the inhibition is -9.2%.

Regarding `COc1ccc(N2CCN(S(=O)(=O)CCNC(=O)c3c(F)cccc3Cl)CC2)cc1`, the inhibition is -21.8%.

In the case of `NC(N)=NCc1cccc(I)c1`, the inhibition was active: 34.3%.

As for `Cc1ccc(C(=O)NCc2nnnn2-c2ccc(C)c(C)c2)cc1`, the inhibition was -2.76%.

In the case of `Cc1ccc(-c2nnc(Nc3ccc(Br)cc3)c3ccccc23)cc1S(=O)(=O)NCc1nc2ccccc2[nH]1`, the inhibition was found to be 10.3%.

For the compound `CCOc1ccc(NC(=O)C2CCCN(c3nnc(-n4c(C)ccc4C)s3)C2)cc1` (stereo unspecified), the inhibition was -0.0938%.

On to `Cc1ccc(Cl)cc1NC(=O)c1cccc(NC(=O)N2CCSc3ncccc32)c1`, for which the inhibition was 3.78%.

As to `COCCN1C(=O)c2[nH]nc(-c3c(C)cc(C)cc3O)c2C1c1cccc(O)c1` (stereo unspecified), the inhibition is -23.1%.

Turning to `COc1ccc(S(=O)(=O)N(CCc2ccccc2)CC(=O)NCc2ccccc2)cc1OC`, the inhibition was -14.9%.

With `CCc1ccc(NCc2cc3ccc(OC)cc3n(CC(=O)Nc3cccc(Cl)c3C)c2=O)cc1`, the inhibition was found to be 5.86%.

Turning to `CC(=O)c1ccc(NC(=O)C2CCC(CNS(=O)(=O)c3cccc4nsnc34)CC2)cc1` (stereo unspecified), the inhibition was 2.03%.

As for `CCc1ccccc1N1C(=O)N(Cc2cccc(Cl)c2)c2ccccc2S1(=O)=O`, the inhibition was -20.9%.

As for `CC(C)(C)OC(=O)N1CCC(c2c(C(=O)N3CCN(C(=O)c4ccco4)CC3)cnn2-c2ccc(Cl)cc2)CC1`, the inhibition was 3.46%.

Take `COc1ccccc1NS(=O)(=O)c1ccc(NC(=O)c2nc3nc(C)cc(C(F)F)n3n2)cc1`: the inhibition is active: 38.6%.

As for `Cc1ccc(-n2c(CNc3ccc(F)cc3)nnc2SCC(=O)N2CCCC2)cc1`, the inhibition is active: 30.1%.

Turning to `COc1cc(OC)c(NC(=O)NCc2ccc3c(c2)CCN3C(C)=O)cc1Cl`, the inhibition is -20.2%.

Turning to `O=c1c2cc3c(cc2n(Cc2cccc(F)c2)c(=O)n1Cc1nc(-c2ccccc2)no1)OCO3`, the inhibition is 3.88%.

As to `CCc1ccccc1NC(=O)CC(C)n1nc(C)cc1C` (stereo unspecified), the inhibition came out at 7.32%.

Consider `COc1cccc(C(=O)Nc2ccccc2-c2nc(-c3ccc(C)cc3)no2)c1`, for which the inhibition is 17.7%.

As for `Cc1ccc(N2C(=O)c3n[nH]c(C)c3C2c2ccc(C(C)C)cc2)cc1` (stereo unspecified), the inhibition stood at 1.09%.

For `CCOC(=O)c1c(S(=O)(=O)N2CCN(c3ccccc3OC)CC2)c(C)n(C)c1C`, the inhibition worked out at 9.59%.

With `Cn1c(=NC(=O)c2ccc(F)cc2)sc2cc(Br)ccc21`, the inhibition is 8.67%.

As to `CCOCN(C(=O)Cn1c(C)nc2ccccc21)c1c(C)cccc1CC`, the inhibition is -4.5%.

Consider `Cc1ccc(Cl)cc1-n1c(=O)cc(N2CCN(c3ccccc3)CC2)[nH]c1=O`, for which the inhibition is -1.46%.

As to `Cc1cc2n(n1)CCCN2C(=O)Nc1ccccc1F`, the inhibition amounted to 4.11%.

For `Cc1cccc(-c2noc(-c3ccc(NC4CCCC4)c([N+](=O)[O-])c3)n2)c1`, the inhibition stood at 2.52%.

For the compound `COc1cc2c(cc1NC(=O)CN1CCN(S(=O)(=O)c3ccc(C)cc3)CC1)oc1ccccc12`, the inhibition was active: 41.8%.

Turning to `CN1CCC=C(C(=O)N2c3ccccc3Sc3ccc(Cl)cc32)C1`, the inhibition is active: 38.6%.

With `Cc1ccc(OCC(=O)Nc2cccc(C(=O)OCc3cc(=O)n4cc(C)sc4n3)c2)cc1`, the inhibition is -14.2%.

Regarding `O=C(CC1N=C2c3ccccc3N=C(SCc3cccc(Cl)c3)N2C1=O)NC1CCCCC1` (stereo unspecified), the inhibition is -6.5%.

On to `CCCCCNC(=O)C1CCC(Cn2c(=O)c3sccc3n(CC(=O)N3CCCC3)c2=O)CC1` (stereo unspecified), for which the inhibition is -15.9%.

Regarding `COc1cc(OC)c(NC(=O)c2nc(-c3ccncc3)no2)cc1Cl`, the inhibition worked out at 22.4%.

Turning to `COc1ccc(NC(=O)CSc2nnc(-c3nnn(-c4ccc(F)cc4)c3C)o2)cc1`, the inhibition is 12.3%.

Regarding `COc1cccc(C(=O)N2CCC(N3CCN(Cc4ccc(F)cc4)C(=O)C3=O)CC2)c1`, the inhibition was determined as 3.37%.

In the case of `CCc1nnc(SCc2nc(-c3ccccc3F)oc2C)c2cc3sccc3n12`, the inhibition worked out at 16.5%.

Consider `CCOc1ccccc1NC(=O)c1c(NCc2ccc(OC)c(OC)c2OC)sc2c1CCC(C)C2` (stereo unspecified), for which the inhibition stood at 16.4%.

Regarding `COc1cccc(C(=O)N2CCC(c3nc4ccccc4s3)CC2)c1`, the inhibition was -20.5%.

Turning to `CCOc1ccccc1NC(=O)c1ccc2c(c1)CCCN2S(C)(=O)=O`, the inhibition is -15.2%.

With `Cc1ccc(C(=O)Nc2nnc(SCc3cc(=O)c4c(C)ccc(C)c4[nH]3)s2)cc1`, the inhibition amounted to 4.38%.

Consider `O=C(C1COc2ccccc2O1)N(Cc1cccnc1)c1nc2c(F)cc(F)cc2s1` (stereo unspecified), for which the inhibition worked out at 5.37%.

As for `O=C(Nc1ccc2nn(-c3ccc(F)cc3)nc2c1)c1cccc2c(Cl)cccc12`, the inhibition is -5.27%.

On to `CC(=O)c1ccc(NC(=O)CSc2nccn2Cc2ccco2)cc1`, for which the inhibition worked out at 8.95%.

Regarding `CC(C)c1ccc(S(=O)(=O)Nc2ccc(O)c(Sc3nc4ccccc4s3)c2)cc1`, the inhibition is 2.36%.

Take `CSc1cccc(NC(=O)C2CCN(S(=O)(=O)c3ccc4[nH]c(=O)ccc4c3)CC2)c1`: the inhibition is -20.3%.

With `CSc1ccc(CN2CCC(CO)(CCOc3ccccc3)CC2)cc1`, the inhibition is active: 50.5%.

For the compound `COc1cc2c(=O)c(S(=O)(=O)c3ccc(C)cc3)cn(Cc3cccc(C)c3)c2cc1OC`, the inhibition was -13.6%.

For the compound `CC1CN(C(=O)N2CCC(C(=O)NCCC3=CCCCC3)CC2)c2ccccc2O1` (stereo unspecified), the inhibition was -12.3%.

For `CCCCNC(=O)C1CCCN(c2nnc(C)c3c(C)n(-c4ccc(Cl)cc4)nc23)C1` (stereo unspecified), the inhibition is -10.2%.

Take `CC(=O)c1cccc(NC(=O)c2noc3c2CC(C)CC3)c1` (stereo unspecified): the inhibition is -5.67%.

For the compound `COc1ccc(C(=O)N2CCN(C(=O)COc3ccc(Br)cc3)CC2)cc1OC`, the inhibition came out at 7.46%.

`COc1ccc(CCNC(=O)CN(C)S(=O)(=O)c2cccs2)cc1`: the inhibition is active: 32.2%.

As to `CCCN1CCC(=O)N([C@H](COc2ccccc2)Cc2ccccc2)CC1`, the inhibition is active: 39.3%.

As for `Cc1cc2c(cc1C)C(c1cccc(OC(C)C)c1)CC(=O)N2` (stereo unspecified), the inhibition is -10.1%.

Turning to `Cn1c(SCC(=O)Nc2ccc(Br)cc2F)nnc1-c1ccco1`, the inhibition was active: 31%.

As for `CCCC(=O)Nc1ccc(NC(=O)c2sc3ccccc3c2Cl)cc1`, the inhibition is -8.89%.

Consider `COCCn1c(SCC(=O)c2ccccc2)nc2cc(C(=O)NC3CCCC3)ccc2c1=O`, for which the inhibition was -1.82%.

As to `CCc1ccc2nc(N(Cc3cccnc3)C(=O)c3cccs3)sc2c1`, the inhibition was -17.1%.

Take `CCSc1nc2c([nH]c3ccccc32)c(=O)n1-c1ccc(OC)cc1`: the inhibition was -15.3%.

`Cc1cccc(NC(=O)CCNS(=O)(=O)c2ccc3c(c2)CCCC(=O)N3)c1C`: the inhibition was -2.73%.

For the compound `CCOC(=O)c1[nH]c2c(c1Cc1ccccc1)C(=O)CC(c1ccc(OC)cc1)C2` (stereo unspecified), the inhibition was -25.8%.

Regarding `O=C(O)CCCC(=O)N1CCc2cc(S(=O)(=O)NCc3ccccc3)ccc21`, the inhibition amounted to 3.51%.

`CN(C)c1ccc(CNc2nc(-c3ccco3)nn2S(C)(=O)=O)cc1`: the inhibition was -18.8%.

In the case of `CCOC(=O)c1ccc(NC(=O)c2cnc(N3CCCC3)nc2C)cc1`, the inhibition amounted to 4.18%.

For `CN(C)c1ccc(NC(=O)Cn2c(SCc3ccc(F)cc3)nc3cccnc32)cc1`, the inhibition was -1.64%.

Regarding `COc1ccc(C/C(C)=N/NC(=S)Nc2ccc(C(C)C)cc2)cc1`, the inhibition is active: 36.5%.

As for `CCc1ccc(NC(=O)CSC2=Nc3ccccc3C3=NC(CC(=O)NCc4ccc5c(c4)OCO5)C(=O)N23)cc1` (stereo unspecified), the inhibition is -3.41%.

As to `Cc1ccccc1Cn1c(=O)n(CCCCC(=O)NCCc2ccccc2)c(=O)c2ccccc21`, the inhibition is -2.22%.

`CCc1ccc2occ(CC(=O)Nc3c(C(=O)Nc4ccc(Cl)cc4)oc4ccccc34)c2c1`: the inhibition was -7.22%.

Take `CN(C)CCNC(=O)c1ccc2nc(CCc3ccccc3)oc2c1`: the inhibition is -10.2%.

On to `CC(C)(C)OC(=O)N1CCC(c2c(C(=O)Nc3ccc4c(c3)OCO4)cnn2-c2ccc(F)cc2F)CC1`, for which the inhibition amounted to 2.18%.

Turning to `COc1ccc(NC(=O)/C(C#N)=C/c2ccc(C)o2)cc1`, the inhibition is 4.08%.

`Cc1cc(-c2ccc(C)c(S(=O)(=O)N(Cc3cccs3)C(C)C)c2)on1`: the inhibition was -5.38%.

Turning to `CCN(CC)CCNC(=O)c1cc2cc(Br)ccc2s1`, the inhibition is active: 50.3%.

On to `COc1ccc(-n2c(=O)c3sc4ccccc4c3n(CC(=O)N3CCCC3)c2=O)cc1`, for which the inhibition was -4.3%.

As for `CCn1cc(S(=O)(=O)c2cccc(C)c2)c(=O)c2cc(F)c(N3CCCCC3C)cc21` (stereo unspecified), the inhibition is -20.1%.

For the compound `Cc1nc(-c2ccc(C)c(N3CCN(C(=O)Nc4ccc(Br)cc4)CC3)c2)no1`, the inhibition was -4.49%.

Consider `COc1ccc(-n2c(SCC(=O)N3CCCc4ccccc43)nc3c([nH]c4ccccc43)c2=O)cc1`, for which the inhibition came out at 8.35%.

On to `COc1ccc(-c2cn3c(n2)sc2cc(C(=O)Nc4ccccc4F)ccc23)cc1`, for which the inhibition was determined as 17.2%.

As for `CCOc1ccc(NC(=O)CCS(=O)(=O)c2ccc3nc(C)sc3c2)cc1`, the inhibition was -4.25%.

On to `c1coc(-c2nc3ccccn3c2Nc2ccc3c(c2)OCCO3)c1`, for which the inhibition is -10%.

By inhibition is commonly meant the relative decrease from the control value, in per cent.
